# Source: PubChem BioAssay AID1508642 (National Center for Advancing Translational Sciences (NCATS), 2021)
# Out of some 43,000 compounds screened, about 200 (0.47%) were called active. Inconclusive means that the source gave no clear call. Such entries were picked first, then a sample of the others. The call rests on the fitted dose curve; in most records, active means well fitted cell-killing curve with a large enough effect; inconclusive means small, poorly fitted or top-dose-only effect, or effect the other way; inactive means flat fitted curve, though single readings scatter. Where the call is inconclusive, the potency comes from a doubtful curve fit.
# Test: Cell viability qHTS assay in S16 Pmp22-F2sN cells; further: nearly all actives have a fitted effect of over 65% in size
# Settings: S16 Pmp22-F2sN Schwann cells (luciferase reporters placed in the Pmp22 gene) viability, CellTiter-Glo, 24 h; series mostly up to 57.5 µM
# Method in brief: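 Seed 500-1,000 S16 Pmp22-F2sN cells per well in phenol-red-free DMEM with 10% heat-inactivated FBS; pin-add 23 nL compound; incubate 24 h at 37C; add CellTiter-Glo, wait 15 min protected from light; read luminescence.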
# Potency means the concentration at half of the fitted maximal effect; tags describe the fitted curve by direction and shape.
row,Structure (SMILES),Potency
1,Cc1ccc2nc(/C(C#N)=C/c3cccc(Br)c3)[nH]c2c1,"inconclusive: 39.8 µM [cytotoxic, single point]"
2,O=C(NCc1ccccc1Cl)C1CCN(S(=O)(=O)c2ccc3c(c2)CCCN3C(=O)C2CCC2)CC1,"inconclusive: 39.8 µM [cytotoxic, single point]"
3,CCCN(CCC)CCCNC(=O)c1cc2c(=O)oc3ccc(C)cc3c2s1,"inconclusive: 0.02 µM [rising, full curve, poor fit]"
4,CCOC(=O)c1c(S(=O)(=O)N2CCC(C(=O)N3CCN(c4cccc(C)c4C)CC3)CC2)c(C)n(C)c1C,"inconclusive: 28.2 µM [cytotoxic, single point]"
5,COC(=O)c1c(C)oc2ccc(N(C(=O)c3ccncc3)S(=O)(=O)c3cc(C)c(C)cc3C)cc12,"inconclusive: 28.2 µM [cytotoxic, single point]"
6,O=S(=O)(Nc1cccc(Cl)c1)c1ccc2[nH]c3c(c2c1)CCCCCC3,"inconclusive: 39.8 µM [cytotoxic, single point]"
7,O=C(COc1ccc(Cl)cc1)OCc1cc(=O)n2nc(-c3cccs3)sc2n1,"inconclusive: 8.91 µM [rising, partial curve, poor fit]"
8,CCC(C)n1c(=N)c(C(=O)NCc2ccccc2)cc2c(=O)n3cc(C)ccc3nc21 (centres undefined),"inconclusive: 2.51 µM [rising, full curve, poor fit]"
9,CCCn1cc(S(=O)(=O)c2ccccc2)c(=O)c2cc(F)c(N3CCCCC3)cc21,"inconclusive: 15.8 µM [cytotoxic, partial curve, poor fit]"
10,COc1ccc(N2CCN(C(=O)C3CCCN(S(=O)(=O)c4ccc5c(c4)CCCN5C(C)=O)C3)CC2)cc1 (centres undefined),"inconclusive: 8.91 µM [cytotoxic, full curve]"
11,COc1ccc(OC)c(NC(=O)CN(C)S(=O)(=O)c2ccc(C(=O)N3CCOCC3)s2)c1,"inconclusive: 22.4 µM [rising, partial curve, poor fit]"
12,Cc1ccc(CN2CCC(CNc3ncnc4onc(-c5ccc(F)cc5)c34)CC2)cc1,inactive
13,CCCN(C(=O)c1nn(-c2ccc(OC)cc2)c(=O)c2c1c1ccccc1n2C)c1ccc(CC)cc1,"inconclusive: 35.5 µM [cytotoxic, single point]"
14,CCOc1cccc(C(=O)Nc2ccc(S(=O)(=O)N(Cc3ccccc3)c3ccccc3)cc2)c1,"inconclusive: 39.8 µM [cytotoxic, partial curve, poor fit]"
15,CCc1ccc(NC(=O)CSc2cn(CC(=O)N3CCCC3)c3ccccc23)cc1,inactive
16,CCOc1ccccc1CNC(=O)c1ccc2nc(Cc3ccc(OC)cc3)oc2c1,"inconclusive: 39.8 µM [cytotoxic, single point]"
17,Cc1ccc(OCC(=O)Nc2ccc(S(=O)(=O)Nc3ncccn3)cc2)c(C(C)(C)C)c1,inactive
18,COc1cc(-c2noc(-c3cc(C(C)C)[nH]n3)n2)cc(OC)c1OC,"inconclusive: 39.8 µM [cytotoxic, single point]"
19,CN1C(=O)c2ccccc2Sc2ccc(NC(=O)N3CCN(c4ccccc4F)CC3)cc21,"inconclusive: 39.8 µM [cytotoxic, single point]"
20,Cc1noc(C)c1S(=O)(=O)Nc1ccc(C(=O)Nc2ccc(Br)cc2)cc1,"inconclusive: 39.8 µM [cytotoxic, single point]"

row,Structure (SMILES),Potency
1,CCCCOc1ccc(CNC(=O)c2cc3n(n2)CCCN(Cc2ccc(C)cc2)C3=O)cc1,"inconclusive: 25.1 µM [cytotoxic, single point]"
2,COc1ccccc1NC(=O)CSc1nnc2c3ccccc3n(C(C)C)c2n1,"inconclusive: 14.1 µM [cytotoxic, partial curve]"
3,CC(=O)N1CCc2cc(Br)cc(S(=O)(=O)CCC(=O)Nc3ccc(C)cc3Cl)c21,"inconclusive: 39.8 µM [rising, partial curve, poor fit]"
4,CCN1CCN(c2cc(C)c3cc(NC(=O)c4ccccc4F)ccc3n2)CC1,"inconclusive: 39.8 µM [cytotoxic, single point]"
5,O=C(c1ccc(CS(=O)(=O)c2c(Cl)cccc2Cl)o1)N1CCN(c2ccccc2)CC1,"inconclusive: 39.8 µM [cytotoxic, single point]"
6,Cc1ccc(Cl)cc1N1CCN(c2ncnc3onc(-c4ccc(F)cc4)c23)CC1,inactive
7,CCOc1ccccc1CNC(=O)C1CCCN(S(=O)(=O)c2ccc3c(ccn3C)c2)C1 (centres undefined),"inconclusive: 39.8 µM [cytotoxic, single point]"
8,Cc1ccc2oc(-c3cc(NC(=O)c4cccs4)cc(C)c3O)nc2c1,inactive
9,CCOc1ccc(-c2cc(C(=O)N3CCN(c4cccc(C(F)(F)F)c4)CC3)c3ccccc3n2)cc1,"inconclusive: 5.01 µM [cytotoxic, full curve]"
10,O=c1c(S(=O)(=O)c2ccc(Cl)cc2)cn(Cc2ccc(F)cc2)c2ccc(F)cc12,"inconclusive: 3.16 µM [cytotoxic, full curve, poor fit]"
11,COc1ccc(C(=O)Nc2ccc(N3CCOCC3)c(C(F)(F)F)c2)cc1OC,inactive
12,CCCN(CCC)CCNC(=O)c1cc(-c2ccc(Br)s2)nc2ccccc12,"inconclusive: 39.8 µM [cytotoxic, single point]"
13,COc1ccccc1CN1CCC(CNC(=O)c2cnn(-c3ccc(C)c(C)c3)c2C2CCN(C(=O)OC(C)(C)C)CC2)CC1,"inconclusive: 28.2 µM [cytotoxic, single point]"
14,COC(=O)c1cc(NC(=O)c2ccc3c(c2)NC(=O)c2ccccc2S3)cc(C(=O)OC)c1,"inconclusive: 7.08 µM [cytotoxic, single point]"
15,CCCCS(=O)(=O)c1nc(-c2ccc(Br)cc2)cc(-c2ccccc2)c1C#N,"inconclusive: 25.1 µM [cytotoxic, single point]"
16,Fc1ccc(-c2cn3cc(Cc4ccccc4)sc3n2)cc1,inactive
17,CCC1CCCCN1C(=O)Cn1c(=O)cc(C(F)(F)F)c2c(C)nn(C)c21 (centres undefined),"inconclusive: 25.1 µM [cytotoxic, partial curve, poor fit]"
18,COC(=O)c1cnn(-c2ccc(C(=O)Nc3cc(OC)c(OC)c(OC)c3)cc2)c1N,"inconclusive: 5.62 µM [cytotoxic, partial curve]"
19,COc1ccc(CNC(=O)CCCn2c(=O)c3cccn3c3cccnc32)cc1,inactive
20,Cc1ccccc1NC(=O)c1ccc(Cl)c(S(=O)(=O)N2CCCCCC2)c1,"inconclusive: 39.8 µM [cytotoxic, single point]"

row,Structure (SMILES),Potency
1,CCOCCCNC(=O)c1c(NC(=O)Cc2coc3ccc(C)cc23)sc2c1CCC2,"inconclusive: 39.8 µM [cytotoxic, single point]"
2,CCc1ccc(S(=O)(=O)c2c(C(=O)c3ccccc3)cnc3ccc(CC)cc23)cc1,inactive
3,COc1ccccc1CN1CCC(CNC(=O)c2cnn(-c3ccc(Cl)cc3)c2C2CCN(C(=O)OC(C)(C)C)CC2)CC1,"inconclusive: 39.8 µM [cytotoxic, single point]"
4,CCN(CC)CCCNC(=O)c1nn(-c2ccc(C)cc2)c(=O)c2c1c1ccccc1n2C,"inconclusive: 12.6 µM [cytotoxic, partial curve, poor fit]"
5,CCOc1ccc(CNS(=O)(=O)c2ccc(-c3coc(C)n3)cc2)cc1OC,inactive
6,CCCCN(C)CCCNC(=O)Cn1ncc2c3ccccc3n(Cc3cc(C)ccc3C)c2c1=O,"inconclusive: 31.6 µM [cytotoxic, single point]"
7,COc1cccc(NC(=O)c2cnc(SCC(=O)N3CCOCC3)n(C)c2=O)c1,"inconclusive: 39.8 µM [cytotoxic, single point]"
8,CCOCCCN(Cc1ccco1)C(=O)c1cc2c(=O)[nH]c3ccc(C)cc3c2s1,"inconclusive: 31.6 µM [cytotoxic, single point]"
9,COc1ccc(/C=C(\C#N)c2nc3ccccc3n2C)c(OC)c1,"inconclusive: 17.8 µM [cytotoxic, single point]"
10,CCN(CC)S(=O)(=O)c1ccc2oc(C(=O)NCc3ccccc3OC)c(C)c2c1,inactive
11,Cc1ccc(NC(=O)c2nc(S(C)(=O)=O)ncc2N(Cc2cccc(F)c2)Cc2ccco2)cc1C,"inconclusive: 35.5 µM [cytotoxic, single point]"
12,COc1cc(-c2ccno2)ccc1S(=O)(=O)N1CCN(c2cccc(Cl)c2)CC1,"inconclusive: 20 µM [cytotoxic, single point]"
13,CCN1CCC(N(Cc2ccc(F)cc2)C(=O)Nc2cc(C)ccc2C)CC1,inactive
14,CCOc1c(CC2C(=O)Nc3ccc(Br)cc32)cccc1OC (centres undefined),inactive
15,CCOc1ccc(N2C(=O)c3[nH]nc(-c4ccccc4)c3C2c2ccc(O)c(OC)c2)cc1 (centres undefined),"inconclusive: 25.1 µM [cytotoxic, single point]"
16,COc1cc(OC)c(NC(=O)Nc2nnc(N(C)C3CCCCC3)s2)cc1Cl,"inconclusive: 22.4 µM [cytotoxic, single point]"
17,COc1ccccc1N1CCN(CCCNC(=O)c2cnn(-c3ccccc3Cl)c2C2CCN(C(=O)OC(C)(C)C)CC2)CC1,"inconclusive: 28.2 µM [cytotoxic, single point]"
18,CC1=C(C(=O)Nc2c(C)cc(C)cc2C)C2(CCN(C(C)C)CC2)OC1=O,"inconclusive: 25.1 µM [cytotoxic, partial curve, poor fit]"
19,CCOCCCNC(=O)C(c1ccc(OC)cc1)N(Cc1cccs1)C(=O)c1ccccc1O (centres undefined),"inconclusive: 31.6 µM [cytotoxic, partial curve, poor fit]"
